The values below come from PMC4336329 (PLoS ONE, 2015).

The campaign covered roughly 310,000 compounds. About 14,000 (4.5%) showed an effect of 50% or more. The effect is printed as a negative number. Some of the results follow.
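Note: peak tail current of the secondary pulse compared with the same well before compound.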

The target in this experiment is human ether-à-go-go-related gene (hERG) potassium channel (human, UniProt Q12809). Kind of experiment: primary screen, population patch clamp on CHO cells stably expressing hERG.
human ether-à-go-go-related gene (hERG) potassium channel, sequence (Q12809 whole entry, looked up): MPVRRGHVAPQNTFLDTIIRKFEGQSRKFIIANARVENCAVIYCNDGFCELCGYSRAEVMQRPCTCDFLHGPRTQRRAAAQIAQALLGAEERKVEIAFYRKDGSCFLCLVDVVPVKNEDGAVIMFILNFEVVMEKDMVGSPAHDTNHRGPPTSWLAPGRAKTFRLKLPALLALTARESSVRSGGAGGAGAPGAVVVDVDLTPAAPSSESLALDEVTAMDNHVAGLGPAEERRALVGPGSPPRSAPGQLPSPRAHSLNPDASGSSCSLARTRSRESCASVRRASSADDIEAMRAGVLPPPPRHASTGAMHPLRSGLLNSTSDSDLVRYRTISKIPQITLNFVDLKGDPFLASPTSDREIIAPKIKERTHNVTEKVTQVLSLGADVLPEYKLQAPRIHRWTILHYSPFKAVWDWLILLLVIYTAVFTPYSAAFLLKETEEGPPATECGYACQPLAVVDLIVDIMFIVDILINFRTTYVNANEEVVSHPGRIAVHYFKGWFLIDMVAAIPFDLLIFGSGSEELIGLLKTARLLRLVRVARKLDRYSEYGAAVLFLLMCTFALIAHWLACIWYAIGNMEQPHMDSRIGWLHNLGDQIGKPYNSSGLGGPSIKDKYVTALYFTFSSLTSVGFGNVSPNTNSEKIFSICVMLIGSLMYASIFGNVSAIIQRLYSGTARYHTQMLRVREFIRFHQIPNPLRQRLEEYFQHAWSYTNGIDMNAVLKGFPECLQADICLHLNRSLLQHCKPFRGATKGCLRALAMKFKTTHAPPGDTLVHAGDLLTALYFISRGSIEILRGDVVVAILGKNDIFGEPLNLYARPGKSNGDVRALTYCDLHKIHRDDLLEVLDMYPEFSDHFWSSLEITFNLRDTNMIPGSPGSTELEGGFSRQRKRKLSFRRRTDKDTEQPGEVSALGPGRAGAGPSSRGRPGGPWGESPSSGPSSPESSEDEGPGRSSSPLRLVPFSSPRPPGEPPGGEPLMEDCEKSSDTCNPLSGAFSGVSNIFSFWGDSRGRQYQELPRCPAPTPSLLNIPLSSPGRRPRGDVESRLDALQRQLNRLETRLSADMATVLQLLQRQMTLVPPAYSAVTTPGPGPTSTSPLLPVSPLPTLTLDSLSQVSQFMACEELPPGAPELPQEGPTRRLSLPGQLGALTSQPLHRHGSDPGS
For `O=C(CCCCn1c(=O)[nH]c2ccsc2c1=O)NCc1cccnc1`, the “hERG current change (%, negative = inhibition) at 10uM” value is reported as -6.6%.
The value for `CC1=C(C(=O)OCC2CCCO2)C(c2ccc(Cl)c(Cl)c2)NC(=O)N1` (stereo not shown) was 11.4%; that for `CN(C)c1ccc(NC(=O)c2ccc3nsnc3c2)cc1` was -14.1%.
Next, `Cc1ccc(CNCc2cc(Cl)ccc2O)cc1.Cl`: -13.3%; `O=[N+]([O-])c1cc(-c2nnc(Nc3ccccc3)c3ccccc23)ccc1N1CCOCC1`: -26.3%.
The value for `O=C(COC(=O)Cc1ccc(Br)cc1)NCc1ccc(F)cc1` was 11.6%; that for `O=C(CSc1ncnc2c1cnn2Cc1ccccc1)Nc1ccc2c(c1)OCCO2` was -1.65%.
Turning to `Nc1ncc(-c2nnnn2-c2ccc(Cl)cc2)c(-c2ccc(Cl)cc2)n1`, the “hERG current change (%, negative = inhibition) at 10uM” value amounted to 3.7%.
Regarding `Cc1ccc(NC(=O)CN(C)C(=O)COC(=O)c2oc3ccccc3c2C)cc1`, the “hERG current change (%, negative = inhibition) at 10uM” value is given as 5.09%.
With `CCOc1c(Br)cc(/C=C2\C(=O)N(CCC#N)N=C2C)cc1OC`, the “hERG current change (%, negative = inhibition) at 10uM” value is -3.68%.
Take `O=C(Nc1cc(C(F)(F)F)ccc1N1CCOCC1)c1cccnc1`: the “hERG current change (%, negative = inhibition) at 10uM” value is given as -42.3%.
For the molecule `CCN(CC)S(=O)(=O)c1ccc(C(=O)OCC(=O)N2CCOCC2)cc1`, the “hERG current change (%, negative = inhibition) at 10uM” value is reported as 29.2%.
The value for `CCO[C@@H]1OC(C(=O)N2CCOCC2)=C[C@H](c2ccc(C(F)(F)F)cc2)[C@H]1CCCO` was -0.142%; that for `Cc1ccc(CN(CC(=O)NC2CCCCC2)C(=O)c2csnn2)cc1` was -13.9%.
The value for `COc1ccc(C(C(=O)NC2CCCC2)N(C(=O)c2ccco2)c2ccc3c(c2)OCO3)cc1OC` (stereo not shown) was -13.6%; that for `NNC(=O)CN1C(c2ccccc2)=Nc2ccc(Br)cc2C1c1ccccc1` (stereo not shown) was -20%.
Consider `CCn1c(SCC(=O)N(C)C)nc2cc(S(=O)(=O)N3CCCCC3)ccc21`, for which the “hERG current change (%, negative = inhibition) at 10uM” value is reported as -9.54%.
Next, `Cc1ccc(/C(O)=C2/C(=O)C(=O)N(CC(=O)O)C2c2ccc([N+](=O)[O-])cc2)cc1` (stereo not shown): 5.93%; `COc1cc(/C=N/n2c(-c3ccccc3)n[nH]c2=S)cc(OC)c1O`: 35.4%; `COCc1ccc(C(=O)N2CCCC(C(=O)c3ccc(SC)cc3)C2)s1` (stereo not shown): -42.6%.
The value for `CCC(C)Sc1nnc(Cc2cc(=O)[nH]c(=O)[nH]2)n1-c1ccc(OC)cc1` (stereo not shown) was 7.16%; that for `O=C(COc1ccccc1Cl)N(Cc1ccco1)C1CCS(=O)(=O)C1` (stereo not shown) was -12.3%.
The value for `CCCCCCC1/C(=N\NC(=O)c2ccccc2)CCC1C(=O)OC` (stereo not shown) was -43.8%.
As for `COc1cc(C(=O)Nc2ccc(S(=O)(=O)Nc3cnc4ccccc4n3)cc2)cc(OC)c1OC`, the “hERG current change (%, negative = inhibition) at 10uM” value is reported as 25.5%.
In the case of `Cc1cccc(N2CCN(C(=O)Cn3nc(Cc4ccncc4)c4ccccc4c3=O)CC2)c1C`, the “hERG current change (%, negative = inhibition) at 10uM” value is -61.3%.
The value for `CC(C)(C)c1ccc(SCCc2ccccn2)cc1` was 6.42%; that for `Cc1ccn2cc(C(=O)N3CCN(c4cnn(-c5ccccc5)c(=O)c4Cl)CC3)nc2c1` was -46.7%; that for `COc1cccc(SCC2CSc3nc4ccccc4c(=O)n32)c1` (stereo not shown) was -22.3%.
Next, `CCC(=O)NCCCc1nc2ccccc2n1Cc1ccccc1F`: -39.8%; `O=C(N/N=C/c1ccc2ncccc2c1)c1ccco1`: -4.47%; `c1cc(CNc2ccc(N3CCOCC3)cc2)ccn1`: 7.28%.
For the molecule `CCN(CC)CCN(Cc1cc2cc3c(cc2[nH]c1=O)OCO3)C(=S)NCc1ccco1`, the “hERG current change (%, negative = inhibition) at 10uM” value is given as -55.8%.
Next, `COc1cccc(NC(=O)c2ccccc2N2C(=O)C3C4C=CC(C4)C3C2=O)c1` (stereo not shown): -1.23%.
The value for `Cn1c(=O)oc2cc(S(=O)(=O)NCCN3CCN(c4ccccc4F)CC3)ccc21` was -11.8%; that for `CN1CCN(c2nc(NCc3ccco3)nc(N)c2[N+](=O)[O-])CC1` was -29.8%; that for `O=C(N/N=C/c1sc(=O)[nH]c1-[n+]1ccccc1)c1ccccc1[O-]` was 5.35%.
As to `O=C(Oc1cccc(N2C(=O)CCC2=O)c1)C1CC(=O)N(c2ccc(F)cc2)C1` (stereo not shown), the “hERG current change (%, negative = inhibition) at 10uM” value was found to be 7.76%.
As to `Clc1cccc(Oc2cnns2)c1Cl`, the “hERG current change (%, negative = inhibition) at 10uM” value is on record as -5.81%.
As to `COc1cc(OC)cc(C(=O)NNC(=O)CCc2ccccc2)c1`, the “hERG current change (%, negative = inhibition) at 10uM” value is listed as 28.9%.
Next, `Cc1ccccc1Cn1ccc(NC(=O)CCSc2nc(-c3ccco3)cc(C(F)(F)F)n2)n1`: 9.05%; `O=C(Nc1cccc2cccnc12)c1ccc2c(c1)OCCO2`: 9.31%.
In the case of `O=S(=O)(c1ccccc1)N1N=C(c2cccs2)CC1c1cccc(O)c1` (stereo not shown), the “hERG current change (%, negative = inhibition) at 10uM” value is recorded as 19%.
Next, `CCN(c1ccccc1)S(=O)(=O)c1ccc(N2CCN(c3ccccc3O)CC2)nc1`: -0.538%.
The value for `O=C(NNc1ccccc1)C(=O)NNS(=O)(=O)c1ccc([N+](=O)[O-])cc1` was -19.2%.
Turning to `CCC(=O)NC(=S)Nc1ccccc1C(F)(F)F`, the “hERG current change (%, negative = inhibition) at 10uM” value is on record as 6.88%.
As to `COc1cc(/C=N/NC(N)=S)ccc1OCC(=O)Nc1ccc(C)cc1`, the “hERG current change (%, negative = inhibition) at 10uM” value is 5.47%.
`Nc1cc(N)nc(SCC(=O)N2CCc3ccccc32)n1`: the “hERG current change (%, negative = inhibition) at 10uM” value was 6.65%.
For `CC(=O)Nc1ccccc1C(=O)N1CC(C)OC(C)C1` (stereo not shown), the “hERG current change (%, negative = inhibition) at 10uM” value turned out to be 11.6%.
The value for `CN1C(=O)CC2(CC(=O)N(Cc3ccccc3)C2)C1=O` (stereo not shown) was 9.7%; that for `CCc1cccc(NC(=O)COC(=O)c2cc([N+](=O)[O-])ccc2N2CCOCC2)c1` was -7.99%; that for `Cc1ccc(S(=O)(=O)n2nc(C)cc2N)cc1` was -1.2%.
In the case of `CCc1cccc2c(C(=O)CSc3nncn3-c3ccc(OC)cc3)c[nH]c12`, the “hERG current change (%, negative = inhibition) at 10uM” value was 24.7%.
Next, `COc1ccc(C(=O)NC(=S)NC(C)(C)C)cc1Br`: 8.36%.
Next, `COc1ccccc1N1CCN(c2cc(N3CCCC3)nc(C)n2)CC1`: -65.3%.
For the molecule `Brc1ccc(C2=Nn3c(Cn4nnc5ccccc54)nnc3SC2)cc1`, the “hERG current change (%, negative = inhibition) at 10uM” value was 13.7%.
